From the RNAGym collection of RNA variant scans (doi:10.7554/elife.90254)
Read counts are not given, so values of variants with three or more changes are uncertain.

B1: LINE1-mini (parent)
chain: GGCAGAGCUCAACACAGCGUGGCAAAGUGGCUGUGGCUAGACUGCC

Variants of: B1
Experiment: self-cleavage, relative activity (ratio to wild type); higher = more cleavage; in vitro, sequencing; the parent is a self-cleaving ribozyme

Q: For GGAAGAGCUCAACACAUCGGGGCAAAGUGGCUGUAGCUAGACUGCC [C3A G17U U20G G35A], which self-cleavage is on record?
A: The self-cleavage was 0.03.

Q: With GGAACAGCUCAACACAGCGUGGCAAAGUGGCUGUGCCUAGACUACC [C3A G5C G36C G44A] as the variant, how does the self-cleavage read?
A: The self-cleavage was 0.04.

Q: Which self-cleavage does the source give for GGAAAAGCUCAACACAGCGAGGCAAAGUGGCUGUGUCUAGACUGCC [C3A G5A U20A G36U] here?
A: The self-cleavage was 0.25.

Q: With GGAAGAACUCAACACAGCGGGGCAAAGUGGCUGUGGCUAGACUGCC [C3A G7A U20G] as the variant, how does the self-cleavage read?
A: Its self-cleavage is 0.23.

Q: Which self-cleavage does the source give for GGAAUAGCUCAACACAGCGUGGCACAGUGGCUGUGGCUAGACUGCC [C3A G5U A25C] here?
A: Its self-cleavage is 0.26.

Q: Which self-cleavage does the source give for GGAAAAGCUUAACACAUCCUGGCAAAGUGGCUGUGGCUAUACUGCC [C3A G5A C10U G17U G19C G40U] here?
A: The self-cleavage was 0.11.

Q: Which self-cleavage does the source give for GGAAUAGCUCAACACAGCGUGGCAAAGUGACUGUGGCUAGACUGCC [C3A G5U G30A] here?
A: Its self-cleavage is 0.47.

Q: For GGAAUAGCUCAACACAGCGUCGCAAAGUGGCUGUGGAUAGACUGCC [C3A G5U G21C C37A], which self-cleavage is on record?
A: Its self-cleavage is 0.1.

Q: With GGAACAGCUCAACACAGCGUGACAAAGUGGCUGUGGCUAGACUGCC [C3A G5C G22A] as the variant, how does the self-cleavage read?
A: The self-cleavage was 0.25.

Q: Which self-cleavage does the source give for GGAAGAACUCAACAUGGCGUGGCGAACUGGCUGUGGCUAGACUGCC [C3A G7A C15U A16G A24G G27C] here?
A: The self-cleavage was 0.18.

Q: With GGAAAAGCUCAACACAGCGUGGCAAAGUCGCUGUGGCUAGACUGCC [C3A G5A G29C] as the variant, how does the self-cleavage read?
A: Its self-cleavage is 0.05.

Q: With GGAAUAGCUCAACACAGCUUGGCAAAGUGACUGUGGCUAGACUGCC [C3A G5U G19U G30A] as the variant, how does the self-cleavage read?
A: The self-cleavage was 0.16.

Q: For GGAAGAGCUCAACACAACGUGGCAAAGUGGCUGGGGCUAGACUGCC [C3A G17A U34G], which self-cleavage is on record?
A: The self-cleavage was 0.07.

Q: Which self-cleavage does the source give for GGAAUAGCUCAACACAGCGAGGCAAAGUUGCUGUGGUUAGACAGGC [C3A G5U U20A G29U C37U U43A C45G] here?
A: The self-cleavage was 0.02.

Q: Which self-cleavage does the source give for GGAACAUCUCAACACAGCGUGGCAAAGGAGCUGUGGAUAGACUGCC [C3A G5C G7U U28G G29A C37A] here?
A: The self-cleavage was 0.2.

Q: With GGAAUAGCUCAACACAGCGUGGCAAGGUGGCUGUGGCUAGACUGCC [C3A G5U A26G] as the variant, how does the self-cleavage read?
A: Its self-cleavage is 0.22.

Q: Which self-cleavage does the source give for GGAAGAGCUCAACACAUCGUGGCAAAGUGGCUGUGGCUAGACAGCA [C3A G17U U43A C46A] here?
A: The self-cleavage was 0.2.

Q: With GGAAGACCUCAACACAGCGUGGCAAUGUUGCUGUGGUUAGACUGCC [C3A G7C A26U G29U C37U] as the variant, how does the self-cleavage read?
A: The self-cleavage was 0.06.

Q: Which self-cleavage does the source give for GGAAGAACUCAACACAGCGCGGCAAAGUCGCAGUGGCUAGACUGCC [C3A G7A U20C G29C U32A] here?
A: The self-cleavage was 0.63.

Q: With GGAAGAACUCAACACAGCAUGGCAAAGUUGCUGUGGCUAAACUGUC [C3A G7A G19A G29U G40A C45U] as the variant, how does the self-cleavage read?
A: Its self-cleavage is 0.11.

Q: With GGAAUAGCUCAACACAGCGUGGCAAAGUGGCUGUGGCAAGACUGCC [C3A G5U U38A] as the variant, how does the self-cleavage read?
A: Its self-cleavage is 0.18.

Q: Which self-cleavage does the source give for GGAAUAGCUCAAUACAGCGUGGCUAAGUGGCUGUGGUUAGACUGCC [C3A G5U C13U A24U C37U] here?
A: Its self-cleavage is 0.41.

Q: Which self-cleavage does the source give for GGAAUAGCUUAAUACUGCGUGGCAAGGUGGCUGUGCCUAGACUGCC [C3A G5U C10U C13U A16U A26G G36C] here?
A: Its self-cleavage is 0.05.

Q: With GGAAGACGUCAACACAGCGUGGCAAAGUUGCUGUUGCUAGACUACA [C3A G7C C8G G29U G35U G44A C46A] as the variant, how does the self-cleavage read?
A: Its self-cleavage is 0.06.

Q: For GGAACAGCUCAACACACCGUGGCAAAGUGGCUGUGGCUUGACUGCC [C3A G5C G17C A39U], which self-cleavage is on record?
A: The self-cleavage was 0.07.

Q: With GGAACAGCUCAACACAGCGUGGCAAAGUGGCUGAGGCUAUACUGCC [C3A G5C U34A G40U] as the variant, how does the self-cleavage read?
A: The self-cleavage was 0.05.

Q: With GGAAAAUCUCAACACAGUGUGGUAAAGUGGCUGUGGCUAAACUGCC [C3A G5A G7U C18U C23U G40A] as the variant, how does the self-cleavage read?
A: Its self-cleavage is 0.24.

Q: With GGAAGAUCUCAACACAGCGUGGCAAAGUGGCUGUUGCUAGACUGCC [C3A G7U G35U] as the variant, how does the self-cleavage read?
A: The self-cleavage was 0.77.

Q: Which self-cleavage does the source give for GGAAUAGCACAAUACAGCGUGGCGAAGUGGCUGUGGCUAGACUGCG [C3A G5U U9A C13U A24G C46G] here?
A: The self-cleavage was 0.62.

Q: For GGAAGAGCUCAACACAGCGUGGCAAAGUGGCUGUGGCUAGAUUGCU [C3A C42U C46U], which self-cleavage is on record?
A: The self-cleavage was 0.14.

Q: Which self-cleavage does the source give for GGAAUAGCUCAACACAGCGUGGCAAAGUGACUGUGGCUACACUGCC [C3A G5U G30A G40C] here?
A: Its self-cleavage is 0.11.

Q: For GGAAAAGAUCAACACAGCGUGGCAAAGUGGCUGUGGCUAGACUGUC [C3A G5A C8A C45U], which self-cleavage is on record?
A: Its self-cleavage is 0.34.

Q: Which self-cleavage does the source give for GGAAGACCUCUACACAGCUUGGCAAAGUGGCUGUGGCUAGACUGCC [C3A G7C A11U G19U] here?
A: The self-cleavage was 0.01.

Q: Which self-cleavage does the source give for GGAAUAGCUCAACACAGCGUGGCAAAGUGGCUGCUGCUAGACUGCC [C3A G5U U34C G35U] here?
A: The self-cleavage was 0.11.

Q: Which self-cleavage does the source give for GGAAGAACUCAACACAGCGUGGCAAAGUGGCAGUGGUUAGCCUGCC [C3A G7A U32A C37U A41C] here?
A: Its self-cleavage is 0.17.

Q: Which self-cleavage does the source give for GGAACAGCUUGACACAGCGUGGUAAAGUGGCUGUGGCUAGACUGCC [C3A G5C C10U A11G C23U] here?
A: Its self-cleavage is 0.02.

Q: With GGAAGAGCUCAACACAGCGUGGCAAAGUGGCUGUGGCUAGAAUGGC [C3A C42A C45G] as the variant, how does the self-cleavage read?
A: Its self-cleavage is 0.5.

Q: For GGAAAAGCUCAAUUCAGCGUGCCAAUGUGGCUGUGGCUAGACUGCC [C3A G5A C13U A14U G22C A26U], which self-cleavage is on record?
A: Its self-cleavage is 0.71.

Q: Which self-cleavage does the source give for GGAACAGCUCAACACAGAGUGGCAAAGUGGCUGUGGCUAGCCUGCC [C3A G5C C18A A41C] here?
A: The self-cleavage was 0.08.

Q: For GGAAUAGCUCAACUCAGCGUGGCAAAGUGGCUGUGGCUAGUCUGCC [C3A G5U A14U A41U], which self-cleavage is on record?
A: Its self-cleavage is 0.21.

Q: Which self-cleavage does the source give for GGAAGAACUCAACACAGCGUGGCAAAGUGUCUGCGGCUAGAGUGCC [C3A G7A G30U U34C C42G] here?
A: Its self-cleavage is 0.67.

Q: With GGAAGACCUCAACACAGGGUGGCAAAGUGGCUGAGGCUAGACUGCC [C3A G7C C18G U34A] as the variant, how does the self-cleavage read?
A: The self-cleavage was 0.06.

Q: With GGAAGACGUCAACACAGCGUGGCAAGGUGGCUGCGGCUAUACUGCC [C3A G7C C8G A26G U34C G40U] as the variant, how does the self-cleavage read?
A: The self-cleavage was 0.09.

Q: For GGAAUAGCUCAACACAGCGUGGCAAGGUGGCUGUGGCUAGACUUCU [C3A G5U A26G G44U C46U], which self-cleavage is on record?
A: The self-cleavage was 0.13.

Q: For GGAAUAGCUCAGCACAGCGUGGCAAAGUGGCUGUGGCUAGAAUGCC [C3A G5U A12G C42A], which self-cleavage is on record?
A: Its self-cleavage is 0.05.

Q: With GGAAGAUCUCUACACAGCUUGGCAAAGUGACUGUGGCUAGACUGCC [C3A G7U A11U G19U G30A] as the variant, how does the self-cleavage read?
A: Its self-cleavage is 0.03.

Q: Which self-cleavage does the source give for GGAACAGCUCAACACAGCGUGGGAAAGUCGCUGCGGCUAGAAUGCC [C3A G5C C23G G29C U34C C42A] here?
A: Its self-cleavage is 0.31.

Q: With GGAAGAGCUCAACACAGCGUGGCAAAGUGGCUGUGGUUAGACUGCA [C3A C37U C46A] as the variant, how does the self-cleavage read?
A: The self-cleavage was 0.2.

Q: Which self-cleavage does the source give for GGAAGAGCUCAACACACGGUGGCAAAGUGGCUGUGGCUAGACUGCC [C3A G17C C18G] here?
A: The self-cleavage was 0.45.

Q: With GGAAGAGCUCAACACAGCGUGGCAAAGUGGGUGUGGUUAGACCGCC [C3A C31G C37U U43C] as the variant, how does the self-cleavage read?
A: Its self-cleavage is 0.08.

Q: For GGAAUAGGUCUACACAGCGUGGCAAACUGGCUGUGGAUAGACUGCC [C3A G5U C8G A11U G27C C37A], which self-cleavage is on record?
A: The self-cleavage was 0.01.

Q: With GGAAGAACGCAACACAGCGGGGCAAAGUGGCUGUGGCUGGAUUGCC [C3A G7A U9G U20G A39G C42U] as the variant, how does the self-cleavage read?
A: Its self-cleavage is 0.8.

Q: For GGAAGAGCUCAACACAUCGUGGCAAAGUGGCUGUCGCUAGACUGCC [C3A G17U G35C], which self-cleavage is on record?
A: The self-cleavage was 0.12.

Q: For GGAAGACCUCAACACAGCGUGGCAAAGUGCCUGUGGCUAGACUGCC [C3A G7C G30C], which self-cleavage is on record?
A: The self-cleavage was 0.07.

Q: With GGAAAAGCUCAACACUGCGUCGCAAAGUGGCUGUGGCUAGACUGCC [C3A G5A A16U G21C] as the variant, how does the self-cleavage read?
A: Its self-cleavage is 0.08.

Q: For GGAAGAGCUCAACACACCGUGGCAAAGUGGCUGUGGCUAUACUACC [C3A G17C G40U G44A], which self-cleavage is on record?
A: The self-cleavage was 0.08.
